Reference: the supplement of paper PMC3334620
Over roughly 33,000 sequences, “E-score (-0.5 to 0.5)” has its median near -0.013; the highest 2% begin near 0.3. Some of the results follow.

biological target: T1, Msn1 (UniProt P22148); assay: PBM E-score (8-mer binding enrichment) (E-score (-0.5 to 0.5)); higher = stronger / more preferred TF binding; most listed sequences are background and not binding sites; settings: protein concentration: 200 nM; construct: GST-full length
T1 sequence: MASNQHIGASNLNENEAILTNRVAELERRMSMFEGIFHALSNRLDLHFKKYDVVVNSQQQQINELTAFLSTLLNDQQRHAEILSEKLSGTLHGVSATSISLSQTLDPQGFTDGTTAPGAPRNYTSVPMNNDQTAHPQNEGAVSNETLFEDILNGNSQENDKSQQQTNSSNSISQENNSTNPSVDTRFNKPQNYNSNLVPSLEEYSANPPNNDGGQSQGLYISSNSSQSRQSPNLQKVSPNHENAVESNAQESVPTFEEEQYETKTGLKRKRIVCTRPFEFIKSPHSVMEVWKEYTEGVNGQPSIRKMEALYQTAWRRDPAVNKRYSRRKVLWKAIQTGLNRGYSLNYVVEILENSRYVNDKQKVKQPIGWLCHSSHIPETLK
Summary of the method: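 Bound GST-tagged yeast transcription factors, applied at about 100-200 nM to double-stranded universal all-10-mer Agilent arrays, were detected with fluorescent anti-GST. Scans were normalised with masliner. A modified Wilcoxon-Mann-Whitney statistic, the E-score, was assigned to each ungapped eight-base word pooled with its reverse complement by the Universal PBM Analysis Suite.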

Row | Sequence | PBM E-score
1 | CCTCTCGA | -0.12
2 | ACGGCGCC | -0.0377
3 | GGATTGTA | -0.0803
4 | AACGTGGG | -0.0795
5 | AATGACAG | 0.151
6 | GACTTGCC | -0.173
7 | ACAAGAGA | 0.205
8 | ATACATTC | 0.111
9 | CTAGGCAA | -0.0633
10 | CATCACGA | -0.0338
11 | CTCTGTCC | 0.34
12 | CGGGTGCA | -0.257
13 | GTAACTAA | 0.0429
14 | GACATCAC | 0.118
15 | CCCCTGCA | -0.351
16 | CAGTGGGC | -0.251
17 | CAATGGCC | -0.28
18 | AATGACTC | -0.0271
19 | CATTGGAG | -0.055
20 | CAAACGCA | -0.00666
21 | CGGTGCTA | 0.0186
22 | CATCTAAC | -0.115
23 | AGCCCGGA | -0.0374
24 | CATATTGA | 0.0877
25 | ACGGACCC | -0.221

Row | Sequence | PBM E-score
26 | GCGAACCC | -0.126
27 | AGAAAACT | 0.116
28 | ACGTAAAT | 0.174
29 | AGAGACAC | 0.177
30 | CTGGGTCC | -0.312
31 | CCATGTCC | 0.434
32 | GGCCGCAA | -0.213
33 | CGAACGTA | 0.0426
34 | AATGTCGT | 0.442
35 | AGCGCGTC | -0.00545
36 | ACACTAAA | 0.197
37 | GCAGCACC | -0.119
38 | CGTTAGAA | 0.00524
39 | ACTTCCTA | -0.0221
40 | AGACCGCT | -0.132
41 | CCACCTAA | -0.0895
42 | CTCAGAAG | -0.215
43 | CATAACAA | 0.121
44 | ACGGGTGG | -0.216
45 | ATGCTAAC | -0.106
46 | ACTCCGAC | 0.013
47 | CGCGCACA | 0.0796
48 | AGCTCTGG | -0.158
49 | AAAATTGC | 0.054
50 | ATGGTTCC | 0.149

Row | Sequence | PBM E-score
51 | CAATGGTG | -0.151
52 | CAACTTGC | -0.0462
53 | GTGGGAGA | -0.317
54 | CGACCGAG | 0.029
55 | CATCGAGA | 0.0038
56 | CCGTCGGC | -0.215
57 | GACGTACA | 0.192
58 | GTTTCAGA | 0.0535
59 | AGCGAGCC | -0.0771
60 | AGAGAGTC | 0.03
61 | ACCCAAGA | -0.0412
62 | CCAGTCAC | -0.231
63 | CTGCGGCA | -0.0777
64 | CGTTACCC | -0.233
65 | AACCGCCA | -0.0539
66 | TGATCAAA | -0.118
67 | ATAGTAAA | 0.151
68 | CAACCCGG | -0.228
69 | GAAATAGC | -0.0331
70 | AAGTGTGG | 0.00029
71 | ATCACACA | -0.0564
72 | CATCGACA | -0.0221
73 | ACCCCGAG | -0.0539
74 | CGGGAACG | -0.288
75 | AGGCCTGC | -0.0768

Row | Sequence | PBM E-score
76 | AGTCCTCG | 0.0764
77 | GGAGCGGA | 0.0201
78 | ACACACTC | -0.0369
79 | AACGCCTA | 0.04
80 | CATGAATA | 0.0114
81 | GACGCATA | 0.0771
82 | ACCATTGG | 0.143
83 | ACTCCCTC | -0.312
84 | ACTGACGG | -0.146
85 | AGCCTGAA | -0.0478
86 | ATGCTCGC | -0.204
87 | CTAACTAA | 0.0544
88 | AACTTGGC | -0.0461
89 | CCAGAGCG | -0.246
90 | ACGTCTAC | -0.0798
91 | AAATCCCC | -0.159
92 | CAGGCAAA | 0.207
93 | CCTGGACC | 0.0101
94 | ATCGGAAC | 0.0755
95 | ACCCCACG | -0.327
96 | GCGCTAAC | 0.00726
97 | GTGGGCAA | -0.12
98 | AAGTCGCC | -0.166
99 | AGAGATTC | -0.03
100 | GGCAACAA | 0.116

Row | Sequence | PBM E-score
101 | AGATCTGG | -0.147
102 | AATTCCGA | 0.193
103 | CGCGATCC | 0.0291
104 | GACAATGC | 0.258
105 | GAGATCCA | -0.143
106 | TAGTTATA | 0.172
107 | ACACGAAA | 0.0939
108 | ACGGTGCG | 0.103
109 | GTCAATTA | 0.166
110 | ACCGCCGA | 0.035
111 | CTTACAAA | 0.0725
112 | GTCACTGA | 0.0645
113 | CATCTTCG | -0.0412
114 | ACATGCCT | -0.119
115 | TATTGTCA | 0.282
116 | ATTCTGAG | -0.0225
117 | ATTTCACA | 0.14
118 | AAACAAGA | 0.0687
119 | AGGACTTC | 0.243
120 | GTGGAAAA | 0.00848
121 | GTGCGAAA | 0.0622
122 | AGACCACG | -0.202
123 | CAAAACCC | 0.116
124 | AGTAGCAA | 0.191
125 | CCAGCGTC | -0.344

Row | Sequence | PBM E-score
126 | CACTCATC | -0.0277
127 | CGCGCCAC | -0.107
128 | AGACCCAA | -0.0078
129 | GGTGAGTA | -0.0822
130 | AGCAGCGC | -0.192
131 | GGTGGTAC | -0.152
132 | AACCAACG | -0.12
133 | TATTTCGA | 0.198
134 | AGACACCG | -0.00613
135 | ACCCATGC | -0.0139
136 | TCATCAGA | -0.048
137 | ACGGGGCC | -0.135
138 | CTCGATCC | -0.0388
139 | CTTTAAGC | 0.0544
140 | CTCTACCC | -0.123
141 | AAGATCTC | -0.131
142 | GGGAACAC | -0.0262
143 | CGACCAAC | 0.113
144 | AATACTAG | 0.18
145 | CCTCCCTA | -0.339
146 | CTCAGCTC | -0.216
147 | GATGGAGA | -0.121
148 | ATGACAGC | 0.149
149 | GAGGAAGC | -0.263
150 | CAGATGTC | 0.347

Row | Sequence | PBM E-score
151 | ACTCCCGG | -0.133
152 | CACACGTC | -0.0386
153 | AAGTCACT | 0.0426
154 | AACGGAGC | -0.0993
155 | CCCCGTAC | -0.253
156 | GGCTGCCA | -0.151
157 | ATTGTTCC | 0.184
158 | AGGCGGAG | -0.0536
159 | AGTCGGCA | -0.0568
160 | GCGCAGCC | -0.208
161 | AGAGATTG | -0.0815
162 | AGAGCTGA | -0.18
163 | AAGCTCGG | -0.046
164 | ACCGCTTA | -0.0219
165 | CTCCTAAA | -0.216
166 | CAATATTA | 0.203
167 | TAGGAAAA | -0.0767
168 | AATCGCTG | -0.0505
169 | CGAATGTA | -0.00301
170 | AATCCCCC | -0.346
171 | GCGGCAAA | -0.184
172 | ATGTAATC | 0.031
173 | CGCCATTA | -0.149
174 | CTGCAAAC | -0.122
175 | CAGCAAGA | -0.00404

Row | Sequence | PBM E-score
176 | GACTTGAC | -0.0214
177 | AATGAAGC | 0.00995
178 | CCCTGTCC | -0.0435
179 | CCGTCTTA | -0.21
180 | ATGGTCAG | 0.0725
181 | TATGAAAA | 0.185
182 | GAACTGGA | 0.0885
183 | CGCGTGAA | 0.00598
184 | AGGATTAA | -0.0123
185 | TGAGCTAA | -0.16
186 | AGAGACAA | 0.375
187 | GATAGGCA | -0.0844
188 | CAAACTCC | 0.195
189 | GGAGCTAA | -0.248
190 | AACATGGT | 0.013
191 | ACAAATGA | 0.317
192 | AGACTACT | -0.0193
193 | CGAGCCGC | 0.0295
194 | ATCCTAAC | 0.0664
195 | AGGTAAGG | -0.00566
196 | GGACGCCA | -0.112
197 | CATAGGGG | -0.223
198 | GCCGACCA | 0.0498
199 | AGCGCCTG | -0.176
200 | GACCATTA | 0.0825

Row | Sequence | PBM E-score
201 | ACTTACAC | 0.0582
202 | CAATGTCG | 0.323
203 | AATGAGTC | -0.086
204 | CTTAGCGA | 0.0418
205 | GCGTTGCC | -0.157
206 | AAGAAGCT | -0.0326
207 | ATGCTTAG | -0.0632
208 | AACAAGCG | 0.187
209 | TACCGAAA | 0.0647
210 | CCTTACAC | -0.0848
211 | TACACAGA | 0.0519
212 | AAGGCACG | -0.0969
213 | AAGTAAGA | -0.0138
214 | GCGCTACA | -0.0869
215 | AAATTCCC | -0.0722
216 | AATGGCGT | -0.0206
217 | GGGGGATA | -0.34
218 | GCTAACGA | -0.026
219 | CATAAATG | 0.125
